{
  "source": "the supplement of paper PMC8728848",
  "binders": {"B1": {"name": "MSMEG3662-2a (Mycobacterium smegmatis), A0QYH7_MYCS2 (protein)", "chain": "MGDTLTAGQKLERGGSLQSGNGAYTLTLQDDGNLVLYARDKAVWSTGTNGQDVVRAEVQTDGNFVLYTAEKPVWHTDTKGKKEVKLVLQDDRNLVLYAKDGPAWSSKTDTTEPPPPAPEPEKEAEVAPAAAEEAAPAPVAEPAPAEPAPAAPPPAPPAPRTYTVVSGDTLWAIAERFYGDGSKYQQIADASGIANPDLIHPGQVLTIP"}},
  "assay_in_all_cases": "glycan array binding signal (z-score within array); higher = stronger binding",
  "conditions_in_all_cases": "glycan notation: IUPAC condensed, linker removed",
  "key": {"[1]": {"biological_target": "Fuc(a1-2)[Gal(a1-3)]Gal(b1-4)GlcNAc(b1-2)Man(a1-3)[Fuc(a1-2)[Gal(a1-3)]Gal(b1-4)GlcNAc(b1-2)Man(a1-6)]Man(b1-4)GlcNAc(b1-4)GlcNAc", "summary_of_the_method": "(§1)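 Arrays were curated from the Consortium for Functional Glycomics database, 3228 in total, and kept only where the protein sequence was available. Binding is expressed as a within-array Z-score. This score was averaged across arrays of the same protein sequence at different concentrations or buffers and across linkers, and negative values can be read as non-binding.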"}, "[2]": {"biological_target": "Fuc(a1-2)[Gal(a1-3)]Gal(b1-4)GlcNAc(b1-2)Man(a1-3)[Fuc(a1-2)[Gal(a1-3)]Gal(b1-4)GlcNAc(b1-2)Man(a1-6)]Man(b1-4)GlcNAc(b1-4)[Fuc(a1-6)]GlcNAc", "summary_of_the_method": "as §1"}, "[3]": {"biological_target": "Fuc(a1-2)[Gal(a1-3)]Gal(b1-4)GlcNAc(b1-3)GalNAc", "summary_of_the_method": "as §1"}, "[4]": {"biological_target": "Fuc(a1-2)[Gal(a1-3)]Gal(b1-4)GlcNAc(b1-3)[Fuc(a1-2)[Gal(a1-3)]Gal(b1-4)GlcNAc(b1-6)]GalNAc", "summary_of_the_method": "as §1"}, "[5]": {"biological_target": "Fuc(a1-2)[Gal(a1-3)]Gal(b1-4)GlcNAc(b1-6)GalNAc", "summary_of_the_method": "as §1"}, "[6]": {"biological_target": "Fuc(a1-2)[Gal(a1-3)]Gal(b1-4)[Fuc(a1-3)]Glc", "summary_of_the_method": "as §1"}, "[7]": {"biological_target": "Fuc(a1-2)[Gal(a1-3)]Gal(b1-4)[Fuc(a1-3)]GlcNAc", "summary_of_the_method": "as §1"}, "[8]": {"biological_target": "Fuc(a1-2)[Gal(a1-3)]Gal(b1-4)[Fuc(a1-3)]GlcNAc(b1-3)GalNAc", "summary_of_the_method": "as §1"}, "[9]": {"biological_target": "Fuc(a1-2)[Gal(a1-4)]Gal(b1-4)GlcNAc", "summary_of_the_method": "as §1"}, "[10]": {"biological_target": "Fuc(a1-2)[GalNAc(a1-3)]Gal", "summary_of_the_method": "as §1"}, "[11]": {"biological_target": "Fuc(a1-2)[GalNAc(a1-3)]Gal(b1-3)GalNAc(a1-3)[Fuc(a1-2)]Gal(b1-4)GlcNAc", "summary_of_the_method": "as §1"}, "[12]": {"biological_target": "Fuc(a1-2)[GalNAc(a1-3)]Gal(b1-3)GalNAc(b1-3)Gal(a1-4)Gal(b1-4)Glc", "summary_of_the_method": "as §1"}, "[13]": {"biological_target": "Fuc(a1-2)[GalNAc(a1-3)]Gal(b1-3)GlcNAc", "summary_of_the_method": "as §1"}, "[14]": {"biological_target": "Fuc(a1-2)[GalNAc(a1-3)]Gal(b1-3)GlcNAc(b1-2)Man(a1-3)[Fuc(a1-2)[GalNAc(a1-3)]Gal(b1-3)GlcNAc(b1-2)Man(a1-6)]Man(b1-4)GlcNAc(b1-4)GlcNAc", "summary_of_the_method": "as §1"}, "[15]": {"biological_target": "Fuc(a1-2)[GalNAc(a1-3)]Gal(b1-3)GlcNAc(b1-2)Man(a1-3)[Fuc(a1-2)[GalNAc(a1-3)]Gal(b1-3)GlcNAc(b1-2)Man(a1-6)]Man(b1-4)GlcNAc(b1-4)[Fuc(a1-6)]GlcNAc", "summary_of_the_method": "as §1"}, "[16]": {"biological_target": "Fuc(a1-2)[GalNAc(a1-3)]Gal(b1-3)GlcNAc(b1-3)GalNAc", "summary_of_the_method": "as §1"}, "[17]": {"biological_target": "Fuc(a1-2)[GalNAc(a1-3)]Gal(b1-3)GlcNAc(b1-6)GalNAc", "summary_of_the_method": "as §1"}, "[18]": {"biological_target": "Fuc(a1-2)[GalNAc(a1-3)]Gal(b1-4)Glc", "summary_of_the_method": "as §1"}, "[19]": {"biological_target": "Fuc(a1-2)[GalNAc(a1-3)]Gal(b1-4)GlcNAc", "summary_of_the_method": "as §1"}, "[20]": {"biological_target": "Fuc(a1-2)[GalNAc(a1-3)]Gal(b1-4)GlcNAc(b1-2)Man", "summary_of_the_method": "as §1"}, "[21]": {"biological_target": "Fuc(a1-2)[GalNAc(a1-3)]Gal(b1-4)GlcNAc(b1-2)Man(a1-3)[Fuc(a1-2)[GalNAc(a1-3)]Gal(b1-4)GlcNAc(b1-2)Man(a1-6)]Man(b1-4)GlcNAc(b1-4)GlcNAc", "summary_of_the_method": "as §1"}, "[22]": {"biological_target": "Fuc(a1-2)[GalNAc(a1-3)]Gal(b1-4)GlcNAc(b1-2)Man(a1-3)[Fuc(a1-2)[GalNAc(a1-3)]Gal(b1-4)GlcNAc(b1-2)Man(a1-6)]Man(b1-4)GlcNAc(b1-4)[Fuc(a1-6)]GlcNAc", "summary_of_the_method": "as §1"}, "[23]": {"biological_target": "Fuc(a1-2)[GalNAc(a1-3)]Gal(b1-4)GlcNAc(b1-3)Gal(b1-4)GlcNAc", "summary_of_the_method": "as §1"}, "[24]": {"biological_target": "Fuc(a1-2)[GalNAc(a1-3)]Gal(b1-4)GlcNAc(b1-3)Gal(b1-4)GlcNAc(b1-3)Gal(b1-4)GlcNAc", "summary_of_the_method": "as §1"}, "[25]": {"biological_target": "Fuc(a1-2)[GalNAc(a1-3)]Gal(b1-4)GlcNAc(b1-3)GalNAc", "summary_of_the_method": "as §1"}, "[26]": {"biological_target": "Fuc(a1-2)[GalNAc(a1-3)]Gal(b1-4)GlcNAc(b1-3)[Fuc(a1-2)[GalNAc(a1-3)]Gal(b1-4)GlcNAc(b1-6)]GalNAc", "summary_of_the_method": "as §1"}, "[27]": {"biological_target": "Fuc(a1-2)[GalNAc(a1-3)]Gal(b1-4)GlcNAc(b1-6)GalNAc", "summary_of_the_method": "as §1"}, "[28]": {"biological_target": "Fuc(a1-2)[GalNAc(a1-3)]Gal(b1-4)[Fuc(a1-3)]GlcNAc", "summary_of_the_method": "as §1"}, "[29]": {"biological_target": "Fuc(a1-2)[GalNAc(a1-3)]Gal(b1-4)[Fuc(a1-3)]GlcNAc(b1-3)GalNAc", "summary_of_the_method": "as §1"}, "[30]": {"biological_target": "Fuc(a1-2)[GalNAc(a1-4)]Gal(b1-4)GlcNAc", "summary_of_the_method": "as §1"}},
  "note": "The other results are listed elsewhere or left out.",
  "data": [
    {"binder": "B1", "values": [
      {"measurement": "glycan array binding signal (z-score)", "setting": "[1]", "value": 0.063},
      {"measurement": "glycan array binding signal (z-score)", "setting": "[2]", "value": -0.073},
      {"measurement": "glycan array binding signal (z-score)", "setting": "[3]", "value": -0.248},
      {"measurement": "glycan array binding signal (z-score)", "setting": "[4]", "value": 0.285},
      {"measurement": "glycan array binding signal (z-score)", "setting": "[5]", "value": -0.124},
      {"measurement": "glycan array binding signal (z-score)", "setting": "[6]", "value": -0.196},
      {"measurement": "glycan array binding signal (z-score)", "setting": "[7]", "value": -0.109},
      {"measurement": "glycan array binding signal (z-score)", "setting": "[8]", "value": -0.087},
      {"measurement": "glycan array binding signal (z-score)", "setting": "[9]", "value": -0.153},
      {"measurement": "glycan array binding signal (z-score)", "setting": "[10]", "value": -0.081},
      {"measurement": "glycan array binding signal (z-score)", "setting": "[11]", "value": -0.212},
      {"measurement": "glycan array binding signal (z-score)", "setting": "[12]", "value": -0.201},
      {"measurement": "glycan array binding signal (z-score)", "setting": "[13]", "value": -0.168},
      {"measurement": "glycan array binding signal (z-score)", "setting": "[14]", "value": -0.051},
      {"measurement": "glycan array binding signal (z-score)", "setting": "[15]", "value": -0.18},
      {"measurement": "glycan array binding signal (z-score)", "setting": "[16]", "value": 0.068},
      {"measurement": "glycan array binding signal (z-score)", "setting": "[17]", "value": -0.16},
      {"measurement": "glycan array binding signal (z-score)", "setting": "[18]", "value": -0.092},
      {"measurement": "glycan array binding signal (z-score)", "setting": "[19]", "value": -0.113},
      {"measurement": "glycan array binding signal (z-score)", "setting": "[20]", "value": -0.046},
      {"measurement": "glycan array binding signal (z-score)", "setting": "[21]", "value": -0.027},
      {"measurement": "glycan array binding signal (z-score)", "setting": "[22]", "value": -0.074},
      {"measurement": "glycan array binding signal (z-score)", "setting": "[23]", "value": -0.03},
      {"measurement": "glycan array binding signal (z-score)", "setting": "[24]", "value": -0.147},
      {"measurement": "glycan array binding signal (z-score)", "setting": "[25]", "value": -0.141},
      {"measurement": "glycan array binding signal (z-score)", "setting": "[26]", "value": -0.074},
      {"measurement": "glycan array binding signal (z-score)", "setting": "[27]", "value": -0.076},
      {"measurement": "glycan array binding signal (z-score)", "setting": "[28]", "value": -0.093},
      {"measurement": "glycan array binding signal (z-score)", "setting": "[29]", "value": -0.018},
      {"measurement": "glycan array binding signal (z-score)", "setting": "[30]", "value": -0.155}
    ]}
  ]
}
